Assay results reported in article PMC6054203.
No constants are given. Whether binding was seen depends on the method and setting. Some binding calls cover weakened binding; strength is not graded here. Tags and fused reporters may be left off the sequences shown.

Legend:
Assay in all cases: two-hybrid; yeast strain AH109 co-transformed with AD (pGAD.GH) and BD (pGBT9.BS) fusions; growth on SC-LWH and on SC-LWH with 0.5 and 3.0 mM 3-AT
[1] = molecular target: T1, CBL-interacting protein kinase 9 (CIPK9), two-hybrid fusion (Arabidopsis thaliana) (UniProt Q9MAM1)
T1 sequence: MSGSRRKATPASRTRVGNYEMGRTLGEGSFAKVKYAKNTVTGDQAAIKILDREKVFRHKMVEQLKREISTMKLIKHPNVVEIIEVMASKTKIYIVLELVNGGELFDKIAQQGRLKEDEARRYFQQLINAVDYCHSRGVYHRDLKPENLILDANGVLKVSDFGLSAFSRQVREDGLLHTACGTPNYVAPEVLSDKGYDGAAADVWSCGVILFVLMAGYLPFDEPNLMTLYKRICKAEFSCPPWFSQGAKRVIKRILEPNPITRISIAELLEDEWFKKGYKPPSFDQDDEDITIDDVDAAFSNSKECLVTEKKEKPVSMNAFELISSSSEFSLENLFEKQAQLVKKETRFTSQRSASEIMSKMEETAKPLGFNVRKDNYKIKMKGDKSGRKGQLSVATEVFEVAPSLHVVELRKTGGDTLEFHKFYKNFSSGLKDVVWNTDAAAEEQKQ

[2] = molecular target: T2, CIPK19, two-hybrid fusion (Arabidopsis) (UniProt Q9FJ55)
T2 sequence: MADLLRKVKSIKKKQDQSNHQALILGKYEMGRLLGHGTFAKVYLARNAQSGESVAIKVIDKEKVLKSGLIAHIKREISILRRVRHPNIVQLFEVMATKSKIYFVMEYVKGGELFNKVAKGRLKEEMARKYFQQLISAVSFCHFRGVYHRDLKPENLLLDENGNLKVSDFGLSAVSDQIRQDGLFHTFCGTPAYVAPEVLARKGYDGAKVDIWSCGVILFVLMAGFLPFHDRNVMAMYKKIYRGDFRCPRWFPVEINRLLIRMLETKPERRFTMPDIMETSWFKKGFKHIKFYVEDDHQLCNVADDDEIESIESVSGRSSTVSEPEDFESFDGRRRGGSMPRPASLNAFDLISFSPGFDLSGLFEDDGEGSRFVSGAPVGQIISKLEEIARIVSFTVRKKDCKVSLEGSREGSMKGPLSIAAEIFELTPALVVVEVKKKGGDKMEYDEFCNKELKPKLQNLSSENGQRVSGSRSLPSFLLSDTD

[3] = molecular target: T3, CIPK21, two-hybrid fusion (Arabidopsis) (UniProt Q94CG0)
T3 sequence: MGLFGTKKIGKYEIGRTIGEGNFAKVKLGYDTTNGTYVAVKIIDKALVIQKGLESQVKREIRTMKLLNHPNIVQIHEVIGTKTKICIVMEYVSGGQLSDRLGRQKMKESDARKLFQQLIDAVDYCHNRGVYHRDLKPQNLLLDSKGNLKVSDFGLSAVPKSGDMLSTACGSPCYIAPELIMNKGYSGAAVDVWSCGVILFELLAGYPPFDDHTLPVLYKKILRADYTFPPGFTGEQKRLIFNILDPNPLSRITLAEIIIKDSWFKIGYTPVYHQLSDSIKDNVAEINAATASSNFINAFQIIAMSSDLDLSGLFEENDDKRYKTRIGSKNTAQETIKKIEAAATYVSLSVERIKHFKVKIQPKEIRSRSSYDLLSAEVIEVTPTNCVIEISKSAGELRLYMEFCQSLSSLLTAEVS

[4] = molecular target: T4, CIPK4, two-hybrid fusion (Arabidopsis) (UniProt Q9SUL7)
T4 sequence: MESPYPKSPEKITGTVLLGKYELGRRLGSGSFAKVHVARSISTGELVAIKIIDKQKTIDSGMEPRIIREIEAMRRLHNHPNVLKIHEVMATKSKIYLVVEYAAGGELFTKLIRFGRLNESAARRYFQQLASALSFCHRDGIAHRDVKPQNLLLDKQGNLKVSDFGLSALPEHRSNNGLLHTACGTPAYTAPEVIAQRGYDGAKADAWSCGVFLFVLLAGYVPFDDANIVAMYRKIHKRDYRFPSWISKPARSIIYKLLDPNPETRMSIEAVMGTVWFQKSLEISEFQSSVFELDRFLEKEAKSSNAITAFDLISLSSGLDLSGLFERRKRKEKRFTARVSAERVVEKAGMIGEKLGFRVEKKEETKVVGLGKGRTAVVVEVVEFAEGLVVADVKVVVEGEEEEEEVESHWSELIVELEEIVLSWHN

[5] = molecular target: T5, CIPK17, two-hybrid fusion (Arabidopsis) (UniProt Q94C40)
T5 sequence: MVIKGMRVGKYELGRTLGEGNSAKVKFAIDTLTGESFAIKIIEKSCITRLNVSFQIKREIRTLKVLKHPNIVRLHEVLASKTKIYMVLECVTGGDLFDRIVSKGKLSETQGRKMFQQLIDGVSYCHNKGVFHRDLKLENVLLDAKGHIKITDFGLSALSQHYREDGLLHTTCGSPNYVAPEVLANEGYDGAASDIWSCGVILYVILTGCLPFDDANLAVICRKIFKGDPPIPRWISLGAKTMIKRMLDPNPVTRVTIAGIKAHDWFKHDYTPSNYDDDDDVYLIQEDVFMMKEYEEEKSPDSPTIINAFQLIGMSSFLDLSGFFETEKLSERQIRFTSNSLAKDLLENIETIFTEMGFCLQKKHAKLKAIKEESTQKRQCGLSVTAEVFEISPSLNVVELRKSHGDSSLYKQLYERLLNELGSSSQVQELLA

B1: AP2C1 (protein phosphatase 2C), two-hybrid fusion (enzyme, UniProt O80871 1-396)
chain: MSCSVAVCNSPVFSPSSSLFCNKSSILSSPQESLSLTLSHRKPQTSSPSSPSTTVSSPKSPFRLRFQKPPSGFAPGPLSFGSESVSASSPPGGVLKRKRPTRLDIPIGVAGFVAPISSSAAVAATPREECREVEREGDGYSVYCKRGRREAMEDRFSAITNLHGDRKQAIFGVYDGHGGVKAAEFAAKNLDKNIVEEVVGKRDESEIAEAVKHGYLATDASFLKEEDVKGGSCCVTALVNEGNLVVSNAGDCRAVMSVGGVAKALSSDHRPSRDDERKRIETTGGYVDTFHGVWRIQGSLAVSRGIGDAQLKKWVIAEPETKISRIEHDHEFLILASDGLWDKVSNQEAVDIARPLCLGTEKPLLLAACKKLVDLSASRGSSDDISVMLIPLRQFI
With B1 the binding [1] was “binds”, the binding [2] was “no binding” and the binding [3] was “no binding”. The binding [4] was “no binding” and the binding [5] was “no binding”.
